In PubChem BioAssay AID1768 (National Center for Advancing Translational Sciences (NCATS), 2009):
In all, about 270,000 compounds went through this assay and about 620 (0.23%) were called active. The inconclusive results got no clear call from the source; some entries with a clear call stand among them for comparison. Calls come from the whole dose curve; as a rule, active = well fitted inhibition curve with a large enough effect in the polarisation, with a control signal flat (not every such curve was filed as active); inconclusive = small, poorly fitted or top-dose-only effect, or effect the other way, or a change in a side signal; inactive = no such curve, though single readings can be large or run the other way; the % refers to the polarisation. Potencies beside an inconclusive call are fits to weak or partial responses and may not hold up. “Side channel” marks fits to a control or component signal instead of the main read-out.

target: Menin (Homo sapiens) (UniProt O00255); test: qHTS Assay for Inhibitors Targeting the Menin-MLL Interaction in MLL Related Leukemias: Competition With Texas Red Labeled MLL-derived Mutant Peptide; settings: fluorescence polarization; FP activity change, negative = inhibition: at 61.6 µM (top of the series); for FP activity change, negative = inhibition: % of control where 0% means no effect
Potency is the fitted concentration of half-maximal effect; tags give direction and shape of the fitted curve or compound fluorescence and quenching.

Sequence of UniProt O00255 (O00255 whole entry, looked up): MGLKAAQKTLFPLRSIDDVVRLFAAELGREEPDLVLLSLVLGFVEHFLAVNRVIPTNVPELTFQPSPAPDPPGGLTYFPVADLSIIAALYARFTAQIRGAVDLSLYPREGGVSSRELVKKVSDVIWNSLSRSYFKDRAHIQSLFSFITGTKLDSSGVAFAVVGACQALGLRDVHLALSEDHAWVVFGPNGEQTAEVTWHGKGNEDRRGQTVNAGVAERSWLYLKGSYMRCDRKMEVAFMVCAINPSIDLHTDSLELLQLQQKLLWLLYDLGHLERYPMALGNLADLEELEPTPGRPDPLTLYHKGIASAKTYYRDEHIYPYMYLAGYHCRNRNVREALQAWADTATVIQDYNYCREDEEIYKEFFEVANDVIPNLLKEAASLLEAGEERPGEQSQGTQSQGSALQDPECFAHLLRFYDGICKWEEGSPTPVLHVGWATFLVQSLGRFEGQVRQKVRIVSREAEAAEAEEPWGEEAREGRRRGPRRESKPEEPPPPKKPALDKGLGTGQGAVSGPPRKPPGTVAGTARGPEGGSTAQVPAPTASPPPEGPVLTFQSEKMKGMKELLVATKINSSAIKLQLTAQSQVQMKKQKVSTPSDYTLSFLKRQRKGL

Potency, inconclusive:
COc1cccc(/C=N/NC(=O)CN(CCc2ccccc2)S(=O)(=O)c2ccc(NC(C)=O)cc2)c1 28.2 µM [quencher, side channel, partial curve], CC(C)Sc1nc(N2CCOCC2)c2c(c1C#N)CC(C)(C)N(C)C2 28.2 µM [fluorescent, side channel, single point], Cc1ccccc1N(C(=O)Cn1nnc(-c2cccs2)n1)C(C(=O)NCCC(C)C)c1ccco1 (centres undefined) 14.1 µM [fluorescent, side channel, partial curve], O=C(CSc1nnnn1-c1cccc(Cl)c1)Nc1ccc2c(c1)CCC2 25.1 µM [fluorescent, side channel, single point], C/C(=N\NC(=O)c1ccccc1O)c1cccc(NC(=O)c2ccccc2)c1 35.5 µM [quencher, side channel, single point], Cc1ccc2nc(-c3cccc(S(=O)(=O)N(C)C)c3)cn2c1 12.6 µM [inhibitor, partial curve], COc1ccc(/C=C2\Cc3ccccc3C2=O)cc1OC 39.8 µM [inhibitor, single point], CCOc1ccc(/C=N/NC(=O)Nc2ccccc2)cc1 35.5 µM [fluorescent, single point], O=C(Cc1cccs1)Nc1ccc(-c2nc3ccccc3[nH]2)cc1 8.91 µM [inhibitor, full curve, poor fit], Cc1cc(C)cc(NC(=O)Cn2c(=O)oc3cc(S(=O)(=O)N4CCC(C)CC4)ccc32)c1 39.8 µM [fluorescent, side channel, single point], Cc1ccc(/C=N/n2c(COc3ccccc3)n[nH]c2=S)s1 1.41 µM [inhibitor, full curve, poor fit], O=C(Nc1nccs1)c1sc2cc(Cl)ccc2c1Cl 14.1 µM [quencher, side channel, partial curve], CC(=O)n1cc(/C=N/NC(=O)c2cccc(O)c2)c2ccccc21 17.8 µM [quencher, side channel, partial curve], O=C(Nc1scc(-c2cccs2)c1C(=O)O)c1cccs1 14.1 µM [quencher, side channel, partial curve], Cc1onc(-c2ccccc2)c1C(=O)N/N=C/c1c[nH]c2ccccc12 14.1 µM [quencher, side channel, partial curve], O=C(NCc1ccc(Cl)cc1)C(=O)N/N=C/c1ccc(Br)cc1 22.4 µM [fluorescent, side channel, single point], CCOC(=O)c1[nH]cnc1C(=O)Nc1ccccn1 39.8 µM [inhibitor, single point], O=C(CN1CCCCC1)Nc1cc(Cl)ccc1Oc1ccccc1 10 µM [fluorescent, side channel, partial curve], COc1ccc(C2=CC(=O)C=CC2=O)cc1 15.8 µM [quencher, side channel, partial curve], CCOc1ccc(C(=O)Cc2cc3cccc(OC)c3oc2=O)cc1 31.6 µM [inhibitor, single point], CC1CCN(c2ccc(-c3ccc(NC(=O)C(F)(F)F)cc3)nn2)CC1 28.2 µM [inhibitor, single point], O=S(=O)(Nc1cccc2cccnc12)c1ccc2ccccc2c1 11.2 µM [quencher, side channel, partial curve], Cc1ccc2c(CN(C)Cc3ccccc3)cc(=O)oc2c1C 20 µM [fluorescent, side channel, single point], O=C(Nc1cccc(C(F)(F)F)c1)c1cc(-c2cccs2)on1 31.6 µM [inhibitor, single point], CCOC(=O)c1c(C)[nH]c(C2=NNC(=Nc3ccccc3)SC2)c1C 17.8 µM [quencher, side channel, partial curve], CCn1c2ccccc2c2nc3cc(OC)c(OC)cc3nc21 39.8 µM [inhibitor, single point], COc1cc(/C=N/N=C(\N)c2nonc2N)cc(OC)c1OC 22.4 µM [fluorescent, side channel, single point], c1ccc2c(c1)oc1c(Nc3ccc4c(c3)OCCO4)ncnc12 22.4 µM [quencher, side channel, partial curve], Cc1cc(NC(=S)N(Cc2cccc(Br)c2)CC2CCC(C(=O)O)CC2)ccc1Cl (centres undefined) 12.6 µM [quencher, side channel, partial curve], Nc1cc2nn(-c3ccccc3)nc2cc1Cl 10 µM [quencher, side channel, partial curve], Cc1cccc(NC(=O)Cn2c(/C=C/c3ccccc3)nc3ccccc32)c1 28.2 µM [inhibitor, single point], O=c1[nH]c2ccc(S(=O)(=O)N3CCN(c4ccccc4F)CC3)cc2s1 22.4 µM [quencher, side channel, single point], O=C1CC(N(CCc2ccccc2)C(=S)Nc2ccccc2)C(=O)N1c1ccccc1 (centres undefined) 3.55 µM [quencher, side channel, partial curve], CCN(CCO)c1ccc(NC(=S)Nc2cccc(S(=O)(=O)N(C)C)c2)cc1 11.2 µM [quencher, side channel, partial curve], CSc1nc(N2CCN(CCO)CC2)c2sc3nc(-c4ccco4)c4c(c3c2n1)CCC4 31.6 µM [quencher, side channel, single point], COc1ccc(C(CCNCc2ccccc2)c2ccc(F)cc2)cc1 (centres undefined) 22.4 µM [fluorescent, side channel, single point], CC(=C/c1ccccc1)/C=N/NC(=O)CSc1nc(C)cc(C)n1 39.8 µM [fluorescent, side channel, single point], Cc1ccc(C(=O)NC(=S)NNC(=O)c2ccc([N+](=O)[O-])cc2)cc1 35.5 µM [quencher, side channel, single point], Cc1cccc(CCN(Cc2cc3cccc(C)c3[nH]c2=O)C(=O)N2CCOCC2)c1 39.8 µM [inhibitor, partial curve], O=C(/C=C/c1ccco1)Nc1nc(-c2ccccn2)cs1 15.8 µM [quencher, side channel, partial curve], O=C(CC1C(=O)NCCN1C(=O)Nc1ccccc1)Nc1cc(Cl)cc(Cl)c1 (centres undefined) 3.16 µM [quencher, side channel, full curve], O=C(Nc1ccc2c(c1)OCCO2)c1ccc(Br)s1 39.8 µM [quencher, side channel, single point], COc1ccc(Br)cc1CN1CCN(C(=O)c2ccc(F)cc2)CC1 31.6 µM [fluorescent, side channel, partial curve], COc1ccc(OC)c(NC(=O)c2nnn(CCc3ccccc3)c2N)c1 10 µM [quencher, side channel, partial curve], CCOC(=O)C1CCN(c2ccccc2CN2CCN(c3ccccc3OCC)CC2)CC1 6.31 µM [fluorescent, side channel, partial curve], CN(C)CC#CCOC(c1ccccc1)c1ccccc1 31.6 µM [fluorescent, side channel, single point], COc1ccccc1OCCOc1ccc(/C=C2\C(=N)N3N=C(S(C)(=O)=O)SC3=NC2=O)cc1 6.31 µM [quencher, side channel, partial curve], CCOc1cc(CNCCCN2CCOCC2)cc(Br)c1OCc1ccccc1Cl 7.94 µM [fluorescent, side channel, partial curve], COc1ccc(/C=C/C(=O)NCC(=O)N/N=C(/C)c2ccc(Cl)cc2)cc1 28.2 µM [fluorescent, side channel, single point], COC(=O)c1ccc(NC(=O)c2ccccc2)o1 25.1 µM [quencher, side channel, single point], COc1ccc(-c2cc(C(=O)OCC(=O)N(C)C)c3ccccc3n2)cc1 35.5 µM [quencher, side channel, single point]

FP activity change, negative = inhibition, inactive:
CC(C)n1c(SCC(N)=O)nc2c1c(=O)[nH]c(=O)n2C 5.71%, C/C(=C\c1ccc(C)o1)C(=O)c1c(C)cc(C)[nH]c1=O -2.48%, CNc1nc(-c2ccc(N(C)C)cc2)nc2ccccc12 -21.3%, COc1ccc(C2C3C=CCC(C)C3C(=O)N2Cc2ccccc2)cc1Cl (centres undefined) -18.3%, ON=Cc1cccn1-c1ccccc1 2.94%, COc1ccc(OC)c(NC(=O)CN2C(=O)C3(OCCCO3)c3ccccc32)c1 -1.74%, COc1cccc(/C=N/NC(=O)c2cnccn2)c1 9.6%, O=C(NC(c1ccccc1)c1ccccc1)c1cccc(S(=O)(=O)NCc2ccccc2)c1 1.83%
